Measurements taken from the supplement of paper PMC11417369.
± gives the standard deviation of the averaged measurements. Some of the results follow.

test system: PfAP2-EXP AP2 domain (GST-tagged); experiment: gcPBM binding intensity (ln(normalized median fluorescence intensity)); higher = stronger DNA binding
Summary of the method: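 Binding intensity is the highest Masliner-normalised natural-log median intensity over replicate spots in either probe orientation. To obtain it, GST-tagged P. falciparum DNA-binding domains made in E. coli were incubated for 1 h on an Agilent 4 × 180k array of primer-extended double-stranded 36-bp intergenic genomic probes plus negative controls. Detection used Alexa488 anti-GST antibody with scanning at 488 nm.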

Sequence	gcPBM binding intensity (ln)
AATAAATATATGTACACACACAAATATATACATATC [CACACA_site1903]	8.54 ± 0.24
TTTTATAATGTTGTAGTGCAAAATACGTATATTTAT [GTGCAC_site9826]	8.64 ± 0.23
GAAAATTATATGTGTTGTACACTTGCAACAACTATT [XGTACX_site3637]	8.49 ± 0.23
AGATATAAGAAAAGCACACACACACCCAAAAAAAAA [CACACA_site2826]	8.87 ± 0.26
AAAATATATATTAACACACACACAAAAAAAAAAAAA [CACACA_site1325]	8.35 ± 0.52
ATATAAATATTTATTAGTACACATTAGTGTAGTTTT [XGTACX_site4493]	8.4 ± 0.35
CTATATTATTTTTCTTGTACGTAGGAAATATAGCTA [XGTACX_site6176]	8.49 ± 0.47
AATATATGGTTTCATTATATTAAATTCAATTTAATG [CACACA_negctrl_site675]	8.18 ± 0.38
GGTGGCTAAATTACAACACACGACGGAATATTATAT [CACACA_site4114]	8.65 ± 0.65
AGTATATAATAATTTACACACAAAAAAATATCAGGA [CACACA_site3517]	8.63 ± 0.38
TGATTTATCTATATTTTATAAGTTATTTATTTTTTT [CACACA_negctrl_site1603]	8.23 ± 0.21
TTTTATTCATTGAGCACACAAAATAAATTATCAAAA [CACACA_site3279]	8.64 ± 0.64
ACCGTGGGAAGACACACACACACACCCACATATATA [CACACA_site333]	8.52 ± 0.49
CACAAAAATGTAATCACACATATATATATATATATA [CACACA_site5818]	10.1 ± 0.38
AAAAAATGAAAATATTCCAAAATAGAGGGAAATGTA [GTGCAC_negctrl_site572]	8.62 ± 0.37
TATGTGATAACACGCACACAAATGTATTTAATTTAT [CACACA_site5435]	8.3 ± 0.39
AAAATTAGGAGACATGCATGTAACGATAAATATAAC [TGCATGCA_site148]	9.79 ± 0.35
CTTTTTTAAAATATTTAACACACAATTTTAATGCAT [CACACA_site9303]	8.39 ± 0.28
ATTCTAATAATATATACACACACATATATATTTATA [CACACA_site8629]	8.47 ± 0.31

Sequence	gcPBM binding intensity (ln)
TTATATTTATATATTTGTACGTATGTATATAATTCA [XGTACX_site2993]	8.31 ± 0.26
TAAATAATTCTTTTAGTACACACGAATAAGCAGATA [CACACA_site305]	8.95 ± 0.44
GTTACATACATATACACACACATATATATATATATA [CACACA_site901]	9.99 ± 0.35
TAATTTTTATTCAAGAGTACACAAAAGATAACTAAA [XGTACX_site4060]	8.51 ± 0.3
TTCTTACACGTTTGCACACTAAAATATATATATATA [CACACA_site434]	9.84 ± 0.23
TAGATACCTATAGAAACATGCAATTGAATATATTTC [TGCATGCA_site402]	8.68 ± 0.29
TAAAAAAAATCATTCACACATATATGAAAAAAAAAA [CACACA_site5546]	8.37 ± 0.72
ATATTAAAGCCTTTTTGTACATATAAATAAACATAG [XGTACX_site4667]	8.7 ± 0.36
CTTGAAAGATTTTATTGTACTCATAAGATACATTTC [XGTACX_site3178]	8.31 ± 0.36
TCATACAATATTAAATGTACATATATATATATATAT [XGTACX_site8828]	10.1 ± 0.34
ATTTTTTTTTTTTTTTTTCATTTTTTTTTTTTTTTT [CACACA_negctrl_site1204]	8.12 ± 0.49
AACTCTTAAAAATAAACATGCAAATATTTACCTTCT [TGCATGCA_site986]	8.5 ± 0.31
TATATATTATATATATGTACATAATTCCATGTTTAG [XGTACX_site3943]	8.71 ± 0.41
TTTTTTTTCTTTTTTTTTTTTTCAAAAGCTTATAAT [CACACA_negctrl_site1526]	8.16 ± 0.17
TGTATAATCATATATACACACACATATATATATATA [CACACA_site8674]	10.1 ± 0.24
TTATATAAAAAAAAATGTACATATAATTGGTAAATT [XGTACX_site5180]	8.77 ± 0.42
GTGTATTTGGTGCGCACACACATGCAAAAAGAAATA [CACACA_site4768]	9.29 ± 0.23
AAAAATATTTAAAATACACACATATATATAATATAT [CACACA_site2006]	8.37 ± 0.4
TTGAAAATAATATGAAGTACATTATTTTTTTTTAAT [XGTACX_site4499]	7.94 ± 0.27

Sequence	gcPBM binding intensity (ln)
AAAACTTTCCATGTTTGTACATAAAATATAATAATT [XGTACX_site2716]	8.44 ± 0.41
ACAAAATGTAAATAAACACACATATTTATATTTATA [CACACA_site6719]	8.34 ± 0.24
AATTCACCAAAAAAAGTGCATATTCAATATATATTA	8.22 ± 0.27
TTGGTGGATAAATTTACACACAATAATTTTCGTTCA [CACACA_site467]	8.4 ± 0.27
AATAAAATATTATGTGCATGCTGTTTTATTTATTAA [TGCATGCA_site102]	9.22 ± 0.31
ATAATTTCAATATTTAATATCATATATATATATTTT [GTGCAC_negctrl_site713]	8.36 ± 0.31
TAAAACAAAACAAAAATAGGATTATATTCCTTTTTT [CACACA_negctrl_site1003]	8.09 ± 0.52
AAATAAAAAAATACCCAACACCATGCCAAATGTGAA [CACACA_negctrl_site411]	8.54 ± 0.56
ATATATATATATATATGTACATATGTGTATATAACT [XGTACX_site495]	10.1 ± 0.35
TAAAATTCGAAAAATTGTACTATTTATATATCTGTA [XGTACX_site6478]	8.13 ± 0.46
ATCAACATTACATTTAGTACACATATATTTCTATGT [XGTACX_site4436]	8.74 ± 0.27
TAGTTAGGCCCTACATGTACATAATATATATTACTT [XGTACX_site1137]	9.21 ± 0.48
TATATAAGTATAAAATGTACATAAAATTTTATGTTA [XGTACX_site2613]	8.53 ± 0.41
CTAATTAATATTTGTACACACATATTTAACCTACTA [CACACA_site3191]	8.48 ± 0.27
TAAAAATTTACATGTTGTACATATAATTATATAATC [XGTACX_site4577]	8.39 ± 0.33
AGGCTGCCATATTATACACACATTTTTAAAAAAATT [CACACA_site3843]	8.48 ± 0.26
AAATATTACCATGTGAAAATTTTACTGCAACATGAA [TGCATGCA_negctrl_site609]	8.71 ± 0.38
TATAGCATATCTCACACACACATAATGAATATTATA [CACACA_site5877]	8.58 ± 0.51
